Laboratory results reported in ChEMBL document CHEMBL1201862, “PubChem BioAssay data set” (2004).

Tested on: NCI-H322M
Assay: NCI tumour cell line growth inhibition, 48 h

SMILES | GI50
O=C(CN1CCCCC1)Nc1ccc2c(c1)C1Oc3ccccc3CC1CO2 (configuration not stated) | inactive: 51.8 µM
COc1ccc2c(c1)C(=O)CC(C(N)=O)C2 (configuration not stated) | inactive: > 100 µM
Brc1sc(Br)c2c1[C@H](Br)C[C@@H]2Br | inactive: > 100 µM
CNc1nc(=S)[nH]c2sc3c(c12)CCCC3 | inactive: > 75 µM
O=C1NC(=S)NC(=O)C1C(c1ccc([N+](=O)[O-])cc1)C1C(=O)NC(=S)NC1=O.c1ccncc1 | inactive: > 100 µM
CC(=O)c1sc2c(c1OC(=O)c1ccco1)c(=O)n(-c1ccccc1)c(=S)n2-c1ccccc1 | inactive: 24.7 µM
COc1cc2c(cc1OC)CCN=C2 | inactive: > 100 µM
O=c1[nH]c(=O)n(C2CC(O)C(CO)O2)cc1C1=NC1 (configuration not stated) | inactive: > 100 µM
O=C1NC(=S)NC(=O)C1=C/C=C/c1ccc([N+](=O)[O-])cc1 | inactive: 22 µM
N#Cc1c(-c2ccccc2)c(-c2ccccc2)cc2c(=O)c3ccc(Cl)cc3[nH]c12 | inactive: > 100 µM
Fc1cc(-c2cc(-c3ccccc3)no2)c(Cl)cc1Cl | inactive: > 35 µM
CCOC(=O)/C(C#N)=C/c1[nH]c(C)c(C)c1C | inactive: > 100 µM
Cn1c2ccccc2c2c(-c3ccccc3)[n+]3ccccc3nc21 | inactive: 66.5 µM
Cc1ccc(SC(CCC(Sc2ccc(C)cc2)Sc2ccc(C)cc2)Sc2ccc(C)cc2)cc1 | inactive: > 100 µM
CCOC(=O)C(C(=O)OCC)c1ccc([N+](=O)[O-])o1 | inactive: 71.8 µM
CC(C)CC(NC(=O)OC(C)(C)C)C(=O)Nc1ccc(Nc2nc(F)nc(-c3c4ccccc4c4n3CCS4)n2)cc1 (configuration not stated) | inactive: 25.9 µM
N#CC1=C(N)N(/N=C/c2ccco2)C(c2ccco2)C1(C#N)C#N (configuration not stated) | inactive: 16.9 µM
C/C=C/C=C/C1=NN(c2cccc(S(=O)(=O)O)c2)C2(C1)C(Cl)C(=O)N2c1nc2ccccc2s1 (configuration not stated) | inactive: 18.2 µM
O=c1[nH]c(=O)n(C2CC(O)C(CO)O2)c2nc3cc4ccccc4cc3nc12 (configuration not stated) | inactive: 64.1 µM
COc1cn2c(cc1=O)COc1ccc(-c3ccccc3)cc1-2 | inactive: 56.9 µM
CC(C)=CCc1c(O)c(CC2=C(O)C(CC=C(C)C)(C(=O)C(C)C)C(O)=C(C)C2=O)c(O)c(C(=O)C(C)C)c1O (configuration not stated) | inactive: 8.13 µM
CC1(C)C2CCC1(C)C(OC(=O)/C=C/C(=O)OC1CC3CCC1(C)C3(C)C)C2 (configuration not stated) | inactive: > 100 µM
CCN1C(NN)=NS(=O)(=O)c2ccccc21 | inactive: > 100 µM
COc1cc(/C=C/C(=O)Oc2ccccc2)ccc1C(=O)O/C=C/c1ccccc1 | inactive: > 100 µM

SMILES | GI50
Nn1c(S)nnc1C12CC3CC(CC(C3)C1)C2 | inactive: > 100 µM
COC(=O)C(C(=O)C(N)=O)c1csc(-n2nc(-c3ccccc3)cc2-c2ccccc2)n1 (configuration not stated) | inactive: > 31.6 µM
O=c1c2ccccc2[nH]c2c(Cl)cc(Cl)c(NC3CCCCC3)c12 | inactive: 30.2 µM
COc1ccccc1/C=C1\CCC(CN2CCOCC2)C1=O (configuration not stated) | inactive: 18.4 µM
NC(=O)OCC(COc1ccc(Cl)cc1)OC(=O)c1ccccc1Cl (configuration not stated) | inactive: 31.8 µM
C/C(=N/NC(=O)C[N+](C)(C)C)C(CN(C)C)C(=O)Nc1ccccc1 (configuration not stated) | inactive: > 100 µM
O=C1c2ccccc2-c2ccc(O)cc21 | inactive: 16.8 µM
CC1=NN(c2cccc(Cl)c2)C(=N/c2nc3ccccc3s2)/C1=C\c1ccccc1O | inactive: 30.6 µM
CC(=O)/C=C\C(=O)NNS(=O)(=O)c1ccc(C)cc1 | inactive: > 100 µM
OC12C3C4CC5C(C4[C@@H]1Br)C2[C@@](O)(c1c(F)c(F)c(F)c(F)c1F)C53 (some centres not stated) | inactive: 62.1 µM
C[n+]1cn(C2=C([N-]S(=O)(=O)c3ccccc3)C(=O)c3ccccc3C2=O)c2ccccc21 | inactive: 34.2 µM
CCCCCCCCCc1cc(O)c(O)cc1CCCCCCCCC | inactive: > 10 µM
CN1N=C(c2ccncc2)OC1c1ccc(C(F)(F)F)cc1 (configuration not stated) | inactive: > 100 µM
COC(=O)C(Cc1cc(OC)c(OC)c(OC)c1)C(=O)OC | inactive: > 320 µM
CC(C)n1c(=O)n(-c2ccccc2)n(C(C)(C)C)c1=O | inactive: > 100 µM
Nc1ccn(CCOC(c2ccccc2)P(=O)(O)O)c(=O)n1 (configuration not stated) | inactive: > 100 µM
O=S(=O)(O)c1ccc2c(/N=N/c3cccc4ccccc34)c(O)c(S(=O)(=O)O)cc2c1 | inactive: > 100 µM
CCOP(=O)(O)C(Nc1ccc(/N=N/c2ccccc2)cc1)c1ccc(C(Nc2ccc(/N=N/c3ccccc3)cc2)P(=O)(O)OCC)cc1 (configuration not stated) | inactive: 23.2 µM
CC(=O)OCC1OC(OC2CC3C(C)(C)C(OC(C)=O)CC[C@]3(C)C3CCC45CC4(CC[C@H]5C(C)CC(O)[C@@H](O)C(C)(C)O)[C@]23C)C(O)C(O)C1O (some centres not stated) | inactive: 7.74 µM
CC(C)=CCC/C(C)=C/CC/C(C)=C/Cc1c(O)c2ccccc2oc1=O | inactive: > 100 µM
N#C/C(=C\c1ccc(O)c(O)c1)C(N)=O | inactive: 34.3 µM
C[C@@H]1[C@H](C)N1CC(O)Cn1ccnc1[N+](=O)[O-] (some centres not stated) | inactive: > 100 µM
CCOc1ccc(NCc2cc(OC)c(OC)c(OC)c2)cc1 | inactive: 4.39 µM

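1) Cells in 96-well plates. 2) Compound, 48 h, 5 concentrations. 3) Linear interpolation between surrounding doses. 4) Unreached endpoint = highest concentration. Abbreviation: GI50, concentration required for 50% inhibition of growth.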 The source made the active and inactive calls. Rule as the data show it: active = GI50 up to about 1.1 µM and inactive = higher.
